The full ranking holds about 110,000 compounds; the median of “z-score” is about -0.1, and the highest 2% start at about 2. This is one part of the list. Calls of active or inactive are those of the source.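 Rule for the calls: active = z-score in the third read window above 3 or below -3; inactive = the rest.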
The compounds below were run against Metabotropic glutamate receptor 8 (Rattus norvegicus) (UniProt P70579) (assay: mGluR8 Gi/Go-coupled signaling modulation – cell-based, rat, thallium flux, HTS, primary screen (AID 488969)). Settings: HEK293 rat mGluR8, GIRK (G protein-gated inwardly rectifying potassium channel) thallium flux, FluoZin2; at 10 µM; stronger effect = higher value; submaximal glutamate (EC20) added with thallium.
UniProt P70579, sequence (P70579 whole entry, looked up): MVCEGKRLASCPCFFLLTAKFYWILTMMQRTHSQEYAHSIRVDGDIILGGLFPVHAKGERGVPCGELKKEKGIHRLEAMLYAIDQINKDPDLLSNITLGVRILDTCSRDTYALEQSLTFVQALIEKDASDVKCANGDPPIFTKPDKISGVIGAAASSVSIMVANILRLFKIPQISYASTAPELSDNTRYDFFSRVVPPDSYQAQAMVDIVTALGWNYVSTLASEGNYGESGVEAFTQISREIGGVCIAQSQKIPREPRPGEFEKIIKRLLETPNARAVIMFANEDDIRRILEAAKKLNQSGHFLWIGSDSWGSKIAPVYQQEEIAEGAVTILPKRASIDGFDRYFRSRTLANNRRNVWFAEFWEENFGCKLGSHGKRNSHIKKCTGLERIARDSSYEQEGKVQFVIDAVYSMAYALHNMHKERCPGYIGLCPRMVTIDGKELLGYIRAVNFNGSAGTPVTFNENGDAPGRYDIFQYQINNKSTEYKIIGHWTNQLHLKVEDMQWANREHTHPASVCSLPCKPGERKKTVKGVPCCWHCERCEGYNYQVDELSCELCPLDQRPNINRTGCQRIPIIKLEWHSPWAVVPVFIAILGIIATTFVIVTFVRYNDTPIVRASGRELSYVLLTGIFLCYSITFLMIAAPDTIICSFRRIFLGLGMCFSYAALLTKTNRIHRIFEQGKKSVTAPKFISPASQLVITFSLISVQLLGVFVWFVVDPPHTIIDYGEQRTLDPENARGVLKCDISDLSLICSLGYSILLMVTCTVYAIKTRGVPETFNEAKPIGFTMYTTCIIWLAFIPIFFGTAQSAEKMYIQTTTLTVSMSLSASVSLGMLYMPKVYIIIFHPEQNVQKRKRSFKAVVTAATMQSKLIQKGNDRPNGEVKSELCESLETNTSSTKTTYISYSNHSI
With `COC(=O)C(Sc1nc(C)cc(C)c1C#N)c1ccccc1` (stereo unspecified) the z-score was -1.09. `c1ccc2c(COn3nnc4ccccc43)cccc2c1` showed a z-score of -0.16. For `CCCCCOC(=O)Cn1c(N2CCCCCC2)nc2c1c(=O)[nH]c(=O)n2C`, the z-score was -0.49. `CCCCNC(=S)NC(=O)c1ccccc1Br` was tested, and the z-score was active: 6.17. `CN(C)CCNC(=S)Nc1ccccc1Cl` showed a z-score of -0.0864. For `O=C(NNC(=O)c1ccc(O)cc1O)c1ccc(Cl)cc1`, the z-score was 0.289. With `C=C(C)Cn1c(SCCN2CCOCC2)nc2c1c(=O)[nH]c(=O)n2C` the z-score was 0.15. With `CN(C(=O)COC(=O)c1ccc2c(=O)n3c(nc2c1)CCC3)c1ccccc1` the z-score was -0.0823. In the case of `CCc1ccc(NS(=O)(=O)c2cccs2)cc1`, the z-score is reported as -0.536. Work on `Cc1c(NC(=O)c2ccccc2N(C)S(=O)(=O)c2ccccc2)c(=O)n(-c2ccccc2)n1C` yielded a z-score of -0.127. Compound `N=c1nc(-c2ccccc2)ccn1O` has a z-score of 2.64. Compound `CCNC(=O)CN(c1ccc(CC)cc1)S(C)(=O)=O` has a z-score of -0.127. With `CN(C)CC(C)(C)CNS(=O)(=O)c1cccc(Cl)c1Cl` the z-score was -0.445. `O=[N+]([O-])c1cccc(/C=N/N2CCN(c3ccccn3)CC2)c1` gave a z-score of -0.169. Work on `COc1cccc(C2/C(=C(\O)c3ccc(OC)c(OC)c3)C(=O)C(=O)N2c2cc(C)on2)c1` (stereo unspecified) yielded a z-score of -0.615. Work on `CC(C)(C)C(=O)Nc1ccccc1C(=O)OCC(=O)c1ccc2c(c1)OCCO2` yielded a z-score of -0.731. `COc1cccc(C(C(=O)NC(C)(C)C)N(C(=O)CCC(=O)Nc2cc(C)on2)C(C)(C)C)c1OC` (stereo unspecified) was tested, and the z-score was -0.147. Compound `CC(Sc1nncn1C)C(=O)Nc1ccc(Cl)cn1` (stereo unspecified) has a z-score of 0.18. In the case of `COc1cccc(NS(=O)(=O)Cc2ccccc2)c1`, the z-score is reported as -0.15. For `Nc1nc(NCc2ccco2)nn1-c1ccccc1`, the z-score was -0.042. `CCC(CC)C(=O)Nc1cc(C(=O)OC)cc(C(=O)OC)c1` showed a z-score of -0.461. For `CCOC(=O)c1c(N)c(C#N)c2n1CCCC2`, the z-score was -0.108. `CCC(O)(CC)C(=O)NN(C(=O)CCl)c1ccccc1` showed a z-score of 0.856. `COC(=O)c1cc(C#N)c(SCc2ccccc2)nc1C` showed a z-score of -0.205. `CC1(C)N=C(SCC(=O)Nc2ccc(Cl)cc2)C(c2ccccc2)=N1` showed a z-score of -0.292. For `COc1cc(C)c(C(C)C)cc1S(=O)(=O)N1CCN(C)CC1`, the z-score was 0.102. With `O=C(OCC(=O)N1CCc2ccccc21)c1c2c(nc3ccccc13)CCCC2` the z-score was -0.688. `O=C(N/N=C/c1cccs1)C1COc2ccccc2O1` (stereo unspecified) gave a z-score of 0.238. `NC(=O)C1(N2CCCCC2)CCN(C(=O)CSc2nc(C(F)(F)F)cc(=O)[nH]2)CC1` showed a z-score of -0.315. For `CCC(C)(C(=O)NC1CCCC1)N(C(=O)c1ccccn1)c1ccccc1` (stereo unspecified), the z-score was -0.308. `O=c1c(Cl)c(N2CCCCC2)cnn1-c1nc2ccccc2[nH]1` gave a z-score of -0.0787. With `COc1ccc(/C=C/c2nc(N)nc(-c3ccccc3O)n2)cc1OC` the z-score was -0.495. `CN1CCN(c2ncnc3c2cnn3-c2ccc(Cl)cc2)CC1` gave a z-score of 0.276. `CCN1CCC(C(N)=O)CC1` was tested, and the z-score was -0.243. `CC1=NN(C(=O)Cc2ccc([N+](=O)[O-])cc2)C(O)(c2ccccc2)C1` (stereo unspecified) was tested, and the z-score was -0.363. In the case of `CCCc1nc2sc3ccccc3c(=O)c2c(=O)n1CCOC`, the z-score is reported as -0.0979. `O=c1c2ccccc2nc2n1CC/C2=C\c1ccccc1[N+](=O)[O-]` showed a z-score of 0.108. With `O=C(O)c1c(F)c(F)c(F)c(F)c1-c1ccc(Cl)cc1` the z-score was 0.0898. `COc1ccccc1NC(=S)NC(=O)CC(C)C` gave a z-score of 0.0124. `CCNc1ccc(C(=O)N/N=C/c2c(C)nn(-c3ccccc3)c2N2CCCC2)cc1[N+](=O)[O-]` gave a z-score of -1.03. In the case of `CCCNc1c(N)n(-c2ccccc2)c(=O)[nH]c1=O`, the z-score is reported as -0.0619. In the case of `CCOC(=O)C1CCCN(C(=S)Nc2cccc(Cl)c2C)C1` (stereo unspecified), the z-score is reported as -0.429. `O=C(NCCCc1ccccc1)C1CC(=O)N(c2ccc3c(c2)OCCO3)C1` (stereo unspecified) gave a z-score of 0.125. In the case of `CS(=O)(=O)Nc1ccc(C(=O)NCC2CCCO2)cc1` (stereo unspecified), the z-score is reported as -0.102. Work on `CC(=O)c1cccc(NC(=O)C(Sc2ncnc3ccccc23)c2ccccc2)c1` (stereo unspecified) yielded a z-score of -0.266. `N#Cc1sc2nc(-c3cccs3)cc(-c3ccccc3)c2c1N` gave a z-score of -0.201. With `Cc1ccccc1OCC(O)Cn1c(=N)n(CCN2CCOCC2)c2ccccc21` (stereo unspecified) the z-score was 1.12. Compound `CCN1CCN(C(=S)Nc2ccc(Cl)cc2Cl)CC1` has a z-score of -0.514. Work on `CCOC(=O)c1sc(Nc2ccc(C)cc2C)nc1C` yielded a z-score of 0.388. Work on `Cc1ccc(-n2c(SCC(=O)N3CCOCC3)nnc2-c2ccncc2)cc1` yielded a z-score of 0.261. For `CCn1c(CNC(=O)c2cccs2)nnc1SCC(=O)Nc1ccc(Cl)cc1`, the z-score was -0.544. In the case of `O=C(O)CSc1nnc(-c2ccc3c(c2)OCO3)o1`, the z-score is reported as 0.0398. Compound `CCCn1c(C)cc(C(=O)CSc2nc3ccccc3c(=O)n2Cc2ccco2)c1C` has a z-score of 0.00814. `Cc1cccc(Cn2c(=O)n(Cc3ccco3)c(=O)c3ccccc32)c1` was tested, and the z-score was -0.97. Compound `Cc1cc(F)c(F)c(C(=O)NC2CC2)c1Cl` has a z-score of 0.0775. `CCOc1ccc(CCN2C(=O)CCC2(C)C(=O)NC(C)CC)cc1OCC` (stereo unspecified) was tested, and the z-score was -0.735. `O=S(=O)(Nc1cccc2cn[nH]c12)c1ccc(F)cc1` was tested, and the z-score was -0.00841. For `COC(=O)c1ccc(C(=O)OC)c(NC(=O)N2c3ccccc3Sc3ccccc32)c1`, the z-score was -1.57. Work on `O=C(CC1C(=O)N(c2ccccc2)C(=S)N1c1ccccc1)c1ccccc1` (stereo unspecified) yielded a z-score of 0.466. In the case of `COC(=O)C(C(C)=O)C1=C/C(=N\S(=O)(=O)c2ccc(C)cc2)c2ccccc2C1=O` (stereo unspecified), the z-score is reported as -0.182. `COc1ccc(OC)c(NC(=O)COC(=O)/C=C/c2c(C)nn(C3CCS(=O)(=O)C3)c2Cl)c1` (stereo unspecified) gave a z-score of -0.29. Work on `CCn1c(SCC(=O)Nc2ccccc2)nnc1C1CCCCC1` yielded a z-score of 0.234. Compound `CCOc1ccccc1N(C(=O)Cn1nnnc1-c1ccc(C)o1)C(CC)C(=O)NC(C)(C)C` (stereo unspecified) has a z-score of -0.0165. For `Cc1cc(/C=N/O)c(C)n1-c1ccccc1`, the z-score was -0.285. With `COc1ccc(-c2c(C)n([O-])c3c([n+]2=O)CCCC3)cc1` the z-score was 0.18. `O=C(CCn1c(=O)oc2ccccc21)N1CCN(C(c2ccccc2)c2ccccc2)CC1` gave a z-score of 0.228. For `Cc1cc(N/N=C/c2ccc(O)cc2O)nc(-c2ccccc2O)n1`, the z-score was -0.489. `COc1ccc(N2CCN(C(=O)CSc3nnc4c(C)cc5cc(C)ccc5n34)CC2)cc1` showed a z-score of 1.03. `CC(=O)Nc1ccc(N2CCOCC2)c(C(=O)Nc2cccc(C)c2)c1` showed a z-score of -0.639. `Cc1ccc(CNC(=O)CSc2ccc(-c3ccco3)nn2)cc1` was tested, and the z-score was 0.58. In the case of `CCCC(=O)NC(NC(=S)Nc1c(C)n(C)n(-c2ccccc2)c1=O)C(Cl)(Cl)Cl` (stereo unspecified), the z-score is reported as -0.165.

— PubChem BioAssay AID488969 (Vanderbilt High Throughput Screening Facility, 2010)
